Assay results from paper PMC4336329 (PLoS ONE, 2015).
Screen size: about 310,000 compounds; about 2,200 (0.71%) showed an effect of 50% or more. The effect is printed as a negative number. The list shows a part of the results.

target: human ether-à-go-go-related gene (hERG) potassium channel (human, UniProt Q12809); test: primary screen, population patch clamp on CHO cells stably expressing hERG
Sequence (Q12809 whole entry, looked up): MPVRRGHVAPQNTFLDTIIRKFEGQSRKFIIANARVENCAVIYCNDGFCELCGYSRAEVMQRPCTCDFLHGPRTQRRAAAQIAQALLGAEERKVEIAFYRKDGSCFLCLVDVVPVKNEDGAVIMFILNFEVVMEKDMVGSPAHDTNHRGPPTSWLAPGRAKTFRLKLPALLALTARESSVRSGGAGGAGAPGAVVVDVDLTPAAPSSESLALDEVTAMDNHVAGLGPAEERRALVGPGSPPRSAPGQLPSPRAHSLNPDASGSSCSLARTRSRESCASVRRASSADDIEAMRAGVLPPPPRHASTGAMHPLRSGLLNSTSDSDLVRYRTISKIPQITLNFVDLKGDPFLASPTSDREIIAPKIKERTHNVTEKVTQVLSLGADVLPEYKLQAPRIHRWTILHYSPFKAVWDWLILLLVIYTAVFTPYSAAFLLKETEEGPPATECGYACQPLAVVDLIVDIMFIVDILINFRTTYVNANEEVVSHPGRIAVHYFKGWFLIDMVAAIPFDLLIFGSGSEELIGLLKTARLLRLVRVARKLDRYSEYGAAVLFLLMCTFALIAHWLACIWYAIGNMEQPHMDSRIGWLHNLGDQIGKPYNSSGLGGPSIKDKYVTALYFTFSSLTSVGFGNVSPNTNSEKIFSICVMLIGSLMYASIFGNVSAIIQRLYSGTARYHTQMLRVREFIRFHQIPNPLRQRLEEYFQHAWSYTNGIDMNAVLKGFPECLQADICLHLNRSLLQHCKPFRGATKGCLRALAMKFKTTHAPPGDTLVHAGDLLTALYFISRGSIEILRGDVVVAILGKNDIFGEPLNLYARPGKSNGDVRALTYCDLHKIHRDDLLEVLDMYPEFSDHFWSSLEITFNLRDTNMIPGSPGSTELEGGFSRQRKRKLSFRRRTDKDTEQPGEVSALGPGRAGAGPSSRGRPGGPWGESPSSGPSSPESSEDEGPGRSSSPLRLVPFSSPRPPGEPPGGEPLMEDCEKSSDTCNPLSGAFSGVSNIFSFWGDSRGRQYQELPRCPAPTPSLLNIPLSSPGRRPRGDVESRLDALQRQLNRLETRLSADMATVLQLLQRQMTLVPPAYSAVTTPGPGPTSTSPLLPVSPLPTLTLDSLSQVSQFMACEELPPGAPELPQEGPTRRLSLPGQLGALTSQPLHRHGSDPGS

| Compound | hERG current change (%, negative = inhibition) at 1uM [%] |
| --- | --- |
| COC(=O)c1ccccc1NC(=O)C1=CC(c2cccs2)=NS(=O)(=O)N1C | 5.74 |
| CC(C)c1ccc(/C=N/Nc2cc(N3CCOCC3)nc(N3CCOCC3)n2)cc1 | -8.97 |
| COc1cc(CNCCN(C)C)c(Br)cc1OCC(=O)NCc1ccccc1 | -7.73 |
| COCCCNS(=O)(=O)c1ccccc1 | 4.86 |
| CC(C)C[C@H](NC(=O)c1nc[nH]c1C(=O)NC1CCN(C(=O)OC(C)(C)C)CC1)C(=O)OCc1ccccc1 | 6.18 |
| Cc1ccc(C(C(=O)NC2CCCCC2)N(CC2CCCO2)C(=O)CNC(=O)c2ccco2)cc1 (centres unmarked) | -0.612 |
| CCOC(=O)c1c(C)[nH]c(C(=O)COC(=O)COc2ccccc2C=O)c1C | 11.3 |
| CCOC(=O)c1cccc(NC(=O)CSc2nc3cccnc3n2C)c1 | 2.62 |
| O=C(/C=C/NNC(=O)c1cccc(Br)c1)c1cccc(Br)c1 | 20.5 |
| Cc1ccc(C(=O)/C=C/c2ccco2)c(O)c1 | -3.5 |
| Cc1cc(C)cc(-n2c(C)cc(/C=N\NC(=O)COc3cccc4cccnc34)c2C)c1 | 21.1 |
| Cc1cc(NC(=O)c2ccc(Cn3nc(C)c(Br)c3C)o2)no1 | 10.4 |
| CCOc1ccc(OCCCC(=O)NCCOc2ccccc2OC)cc1 | -19 |
| COc1ccc(S(=O)(=O)N2CCC(C(=O)Nc3cccc(C(C)=O)c3)CC2)cc1C | 9.88 |
| COC(=O)C(Cc1ccc(OC(=O)c2ccccc2Cl)cc1)N1Cc2ccccc2C1=O (centres unmarked) | 10.3 |
| O=C(Nc1ccccc1N1CCCC1)c1ccccc1F | 6.48 |
| Cc1ccc(SCC(=O)c2ccc[nH]2)cc1 | 7.15 |
| CCSc1nnc(NC(=O)CSc2nnc(-c3c[nH]c4ccccc34)n2CC)s1 | 13.2 |
| O=C(Nc1ccc(Br)cc1)N1CCCC(O)C1 (centres unmarked) | 15.1 |
| c1ccc(Nc2nnc(SCc3cccc4ccccc34)s2)cc1 | 14.1 |
| CC(=O)N1CCN(CC(=O)Nc2ccc(C)c(S(=O)(=O)N(C)C)c2)CC1 | 14.7 |
| CC(Sc1nnc(-c2ccccc2F)n1C1CC1)C(N)=O (centres unmarked) | 15.2 |

| Compound | hERG current change (%, negative = inhibition) at 1uM [%] |
| --- | --- |
| O=C(Cn1ccc(NC(=O)OCc2ccccc2)nc1=O)NCc1ccc2[nH]ccc2c1 | 10.8 |
| Cc1ccc(NC(=O)CCn2cnc3ccccc3c2=O)c(C)c1 | 4.22 |
| CCOC(=O)c1c(C)[nH]c2cc(Br)c(O)cc12 | 12.7 |
| O=C(O)C(=O)O.OC(CNC1CCCCCC1)COc1cccc2ccccc12 (centres unmarked) | 9.67 |
| COc1cccc(NC(=O)CN2C(=O)COc3ccc(S(=O)(=O)N4CCOCC4)cc32)c1 | 18.9 |
| C/C(=N\NC(=O)c1cccc(N/N=C(\C)c2ccc([N+](=O)[O-])cc2)c1)c1ccc([N+](=O)[O-])cc1 | 3.9 |
| Cc1ccc(S(=O)(=O)N(C)c2ccc(OCC(=O)N3CCCC(C(F)(F)F)C3)cc2)cc1 (centres unmarked) | -2.11 |
| COC(=O)C(C)Sc1nnc(-c2ccncc2)o1 (centres unmarked) | -6.76 |
| N#Cc1cccc(NC(=O)c2cncn2-c2ccccc2)c1 | 12 |
| Cc1ccc(C2CC(c3ccccc3)n3ncnc3N2)cc1 (centres unmarked) | 9.95 |
| CC(C)(C)CN1CCNC(=O)C1CC(=O)N1CCOc2ccccc2C1 (centres unmarked) | 14.7 |
| Cc1csc(=O)n1CC(=O)OCC(=O)Nc1cc(Cl)ccc1[N+](=O)[O-] | 0.0411 |
| O=C(CCc1ccccc1F)N1CCN(c2ccc(C(F)(F)F)cn2)CC1 | 18.5 |
| Nc1ccc(C(=O)CC(=O)Nc2ccc(Cl)cc2)cc1 | -0.954 |
| COc1ccc(S(=O)(=O)N2CCN(CC(=O)Nc3ccccc3Cl)CC2)cc1 | 10.1 |
| COc1ccc(C)cc1NC(=O)C(Sc1nnc(Nc2ccccc2F)s1)c1ccccc1 (centres unmarked) | 14.9 |
| COc1ccc(CN2C(=O)CN=C2Nc2ccc(C)cc2C)cc1.Cl | -1.63 |
| Cc1c(Cc2c(C)n(C)n(-c3ccccc3)c2=O)c(=O)n(-c2ccccc2)n1C | 4.05 |
| CCOC(=O)c1cccc(NC(=O)c2ccc3c(c2)OCO3)c1 | 2.35 |
| CCCCCCCC[n+]1cccc(C(=O)N2c3c(nc(N)[nH]c3=O)NC(C)C2C)c1.[I-] (centres unmarked) | 10.3 |
| O=C(/C=C/c1cccc([N+](=O)[O-])c1)N1CCN(S(=O)(=O)c2cccs2)CC1 | -17.6 |
| COc1cc(/C=C2\CC/C(=C\c3cc(OC)c(O)c(OC)c3)C2=O)cc(OC)c1O | 8.77 |
